Source: PubChem BioAssay (NCI)
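Values below derive from 48-hour exposures of cells grown in 96-well plates, with endpoints linearly interpolated between the two concentrations bracketing the appropriate inhibition level. The concentration for 50% growth inhibition is given as GI50.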 Certain results were filed several times, with different values. This list holds those alone. An entry can have further records. The tests behind the records often covered other concentration ranges, not given here; some values may only mark the edge of a range.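 At the TGI there is no net growth.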 Marks in square brackets tell the records apart. A, B and so on number the origins entry by entry.

Key:
Test in all cases: inhibition of tumour cell growth, NCI panel, 48 h
HL-60(TB) leukemia = tested on: HL-60(TB) leukemia
OVCAR-4 ovarian = tested on: OVCAR-4 ovarian
HOP-92 NSCLC = tested on: HOP-92 NSCLC
NCI-H226 lung = tested on: NCI-H226 lung
SK-MEL-2 melanoma = tested on: SK-MEL-2 melanoma
SF-268 CNS = tested on: SF-268 CNS
SK-MEL-28 melanoma = tested on: SK-MEL-28 melanoma
T-47D breast = tested on: T-47D breast
SNB-75 CNS = tested on: SNB-75 CNS
HCT-15 colon = tested on: HCT-15 colon
SK-OV-3 ovarian = tested on: SK-OV-3 ovarian
A498 renal = tested on: A498 renal
K-562 leukemia = tested on: K-562 leukemia
KM12 colon = tested on: KM12 colon
HT29 colon = tested on: HT29 colon
CCRF-CEM leukemia = tested on: CCRF-CEM leukemia
NCI-H23 lung = tested on: NCI-H23 lung
UO-31 renal = tested on: UO-31 renal
MDA-MB-435 = tested on: MDA-MB-435
NCI/ADR-RES ovarian = tested on: NCI/ADR-RES ovarian
OVCAR-8 ovarian = tested on: OVCAR-8 ovarian
LOX IMVI melanoma = tested on: LOX IMVI melanoma
M14 melanoma = tested on: M14 melanoma
CAKI-1 renal = tested on: CAKI-1 renal
OVCAR-3 ovarian = tested on: OVCAR-3 ovarian
UACC-62 melanoma = tested on: UACC-62 melanoma
U251 CNS = tested on: U251 CNS
UACC-257 melanoma = tested on: UACC-257 melanoma
SNB-19 CNS = tested on: SNB-19 CNS
DMS 273 small cell lung = tested on: DMS 273 small cell lung
HCT-116 colon = tested on: HCT-116 colon
MALME-3M melanoma = tested on: MALME-3M melanoma
NCI-H460 lung = tested on: NCI-H460 lung

In the case of `O=C1NC2C(=CC(O)C(O)C2O)c2cc3c(cc21)OCO3` (stereo unspecified), the GI50 (HL-60(TB) leukemia) is reported as 2.63 nM [1 test] and 78.3 nM [mean of 3 tests], the TGI (OVCAR-4 ovarian) is reported as 30.6 µM [1 test] and 2.28 µM [mean of 2 tests] and the TGI (HOP-92 NSCLC) is reported as 805 nM, 2.41 µM, 10.6 µM.
For `COc1ccc2c(c1)[nH]c(=O)c1c3ccccc3cn21`, the GI50 (NCI-H226 lung) was 45.3 nM [1 test] and 974 nM [mean of 2 tests], the TGI (NCI-H226 lung) was 522 nM [1 test] and 18.4 µM [mean of 2 tests] and the GI50 (SK-MEL-2 melanoma) was 158 nM and 1.92 µM. The TGI (SF-268 CNS) was 2.98 µM [1 test] and 210 nM [mean of 2 tests], the GI50 (SK-MEL-28 melanoma) was 52.9 nM and 1.24 µM and the TGI (SK-MEL-28 melanoma) was 2.54 µM and 27.1 µM. For the same compound, the GI50 (T-47D breast) was 48.3 nM and 38.2 µM, the TGI (T-47D breast) was 4.6 µM and > 100 µM and the GI50 (SNB-75 CNS) was 27.5 nM [1 test] and 6.4 µM [mean of 2 tests]. The TGI (SNB-75 CNS) was 83.9 nM [1 test] and 15.3 µM [mean of 2 tests], the GI50 (OVCAR-4 ovarian) was 90.9 nM [1 test] and 6.39 µM [mean of 2 tests] and the TGI (OVCAR-4 ovarian) was 5.09 µM [1 test] and > 51.3 µM [mean of 2 tests]. For the same compound, the TGI (HCT-15 colon) was 1.14 µM [1 test] and 27 µM [mean of 2 tests], the GI50 (SK-OV-3 ovarian) was 38.8 nM and 5.14 µM and the TGI (SK-OV-3 ovarian) was 1.63 µM and > 100 µM. The TGI (A498 renal) was 1.36 µM [1 test] and 16.1 µM [mean of 2 tests], the TGI (K-562 leukemia) was 1.02 µM and 15.9 µM and the TGI (KM12 colon) was 1.5 µM [1 test] and > 31.2 µM [mean of 2 tests]. The TGI (HT29 colon) was 1.48 µM and > 100 µM, the TGI (CCRF-CEM leukemia) was 1.44 µM [1 test] and 77.6 nM [mean of 2 tests] and the GI50 (NCI-H23 lung) was 42.2 nM and 440 nM.
With `N#Cc1c(N)n2c(nc1=Nc1ccc(Cl)cc1)sc1cc(Cl)ccc12` the GI50 (HL-60(TB) leukemia) was 6.16 µM and > 100 µM, the GI50 (HOP-92 NSCLC) was 1.82 µM and > 100 µM and the TGI (HOP-92 NSCLC) was 5.05 µM and > 100 µM. For the same compound, the GI50 (UO-31 renal) was 1.89 µM and > 100 µM and the TGI (UO-31 renal) was 6.73 µM and > 100 µM.
For `CO[C@H]1C[C@H](O[C@H]2CC[C@]3(C=O)[C@H]4CC[C@]5(C)[C@@H](C6=CC(=O)OC6)CC[C@]5(O)[C@@H]4CC[C@]3(O)C2)O[C@H](C)[C@H]1O[C@@H]1O[C@H](CO)[C@@H](O)[C@H](O)[C@H]1O`, the TGI (NCI-H226 lung) was 0.204 nM and 18.1 nM, the TGI (MDA-MB-435) was 0.0823 nM and 25.1 nM and the TGI (SF-268 CNS) was 0.0434 nM and 18.6 nM. The TGI (NCI/ADR-RES ovarian) was 0.0573 nM and > 100 µM, the TGI (SNB-75 CNS) was 0.113 nM and > 100 µM and the TGI (OVCAR-8 ovarian) was 0.0766 nM and 22 nM. For the same compound, the TGI (LOX IMVI melanoma) was 0.0721 nM and 19.4 nM, the TGI (M14 melanoma) was 0.0836 nM and 33.4 nM and the TGI (KM12 colon) was 0.316 nM and 490 nM. The TGI (CAKI-1 renal) was 0.0425 nM and 11.4 nM, the TGI (OVCAR-3 ovarian) was 0.135 nM and 12.7 nM and the TGI (UACC-62 melanoma) was 0.141 nM and 17.7 nM. For the same compound, the TGI (HT29 colon) was 0.0785 nM and 101 nM, the TGI (UO-31 renal) was 0.0673 nM and 87.5 nM and the TGI (U251 CNS) was 0.106 nM and > 100 µM. For the same compound, the TGI (UACC-257 melanoma) was 2.5 nM and 26.9 nM and the TGI (SNB-19 CNS) was 0.274 nM and 30.7 nM.
In the case of `COc1cc2c(c(OC)c1OC)-c1ccc(OC)c(=O)cc1[C@@H](NC(C)=O)CC2`, the TGI (NCI-H226 lung) is reported as 1.35 µM [sample A, mean of 3 tests] and 4.52 µM [sample A, mean of 5 tests] and > 100 µM [sample B, 1 test], the TGI (SK-MEL-2 melanoma) is reported as 6.25 nM [sample A, 1 test] and 52 µM [sample A, mean of 4 tests] and 506 nM [sample A, mean of 5 tests] and > 100 µM [sample B, mean of 2 tests] and the TGI (NCI/ADR-RES ovarian) is reported as 5.31 µM, 2.59 µM [sample A] and 4.51 µM [sample B] and > 31.2 µM [sample C]. The GI50 (DMS 273 small cell lung) was 4.6 nM [1 test] and 62.5 nM [mean of 2 tests], the TGI (DMS 273 small cell lung) was 6.25 nM [1 test] and > 625 µM [mean of 2 tests] and the TGI (SK-OV-3 ovarian) was 5.06 µM, 27 µM [sample A] and > 100 µM [sample B] and > 100 µM [sample C]. For the same compound, the TGI (HCT-116 colon) was 18 µM, > 242 µM [sample A] and > 100 µM [sample B], the TGI (CAKI-1 renal) was 35.1 µM, 145 nM [sample A] and > 100 µM [sample B] and > 100 µM [sample C] and the TGI (MALME-3M melanoma) was 6.25 nM, > 87.3 µM, > 459 µM [sample A] and > 100 µM [sample B] and > 100 µM [sample C]. For the same compound, the TGI (NCI-H460 lung) was 1.37 µM, 6.25 µM [sample A] and 6.56 µM [sample B] and > 100 µM [sample C].
